Test results as given in the supplement of paper PMC10126150.
Sequences with one replicate were seen in a single cluster, so their values are uncertain.

Test system: ATP
Assay: switch fluorescence ratio, 500 uM ATP over buffer (Cy3 cluster intensity, sum of 5 cycles each) (fold (ratio)); higher = stronger signal-on switching upon ATP binding; sequences stand for … in TCGTCGGCAGCGTCAGATGTGTATAAGAGACAGTTTTTTTTTTTTTTTTTTTTTTTTT…TC
Settings: aptamer strand: ATP DNA aptamer (quencher-CACCTGGGGGAGTATTGCGGAGGAAGG + anchor), 100 nM annealed; ATP concentration: 500 uM; one replicate
In short: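 Between each of five buffer/ATP cycles, the flow-cell was stripped with NaOH and re-annealed. Each cycle imaged Cy3-labelled switching-strand clusters, annealed to 100 nM quencher-labelled ATP aptamer on a modified Illumina MiSeq flow-cell, first in selection buffer and then after 15 min with 500 uM ATP at 22 °C. The fluorescence ratio is summed target-cycle over summed buffer-cycle Cy3 intensity per cluster, averaged per switch-domain sequence, with clusters outside 100-1000 RFU excluded.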
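Note: ATP exposure 15 min at 22 °C before imaging.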

| Sequence | switch fluorescence ratio |
| --- | --- |
| CAAAAATTAA | 0.993 |
| AGGAGACAGC | 1.07 |
| CCCCTACGCG | 1.33 |
| TGACATCTC | 1 |
| TTTTCCCGT | 0.996 |
| GCGTTTGTAT | 1.03 |
| AACGTTGAAA | 1.03 |
| GCGTCAAAG | 1.01 |
| ATTTCGACCT | 1.04 |
| CTCAGCCTGG | 1.11 |
| CGCTGGGCAT | 0.985 |
| AGGTTAAGGG | 0.962 |
| ATTGTCGATG | 1.18 |
| GCATAGATCT | 0.967 |
| TTGGAGAATT | 0.986 |
| CGGCATGGCA | 0.984 |
| CAAAATGAAA | 1.04 |
| AAACCAGGGT | 1.12 |
| TTGTTGCCGA | 1.02 |
| TGTCTGCTGT | 0.989 |
| CCTGTTGCTG | 0.995 |
| TATCTGGGAA | 1.01 |
| CGTTGAGACT | 0.996 |

| Sequence | switch fluorescence ratio |
| --- | --- |
| ACAGTCAAGT | 1.04 |
| AAGTGTAGTA | 1.02 |
| AGTACGTTTT | 0.968 |
| CATTTATTAT | 0.962 |
| TCGTCTCAGG | 1 |
| AAATCGACGG | 1.04 |
| TCGATGGTGG | 0.97 |
| CGAGGACTCA | 1.04 |
| TAACTAAGCC | 0.979 |
| CTTCTAAAAG | 0.944 |
| CATGGGAATA | 0.985 |
| TATGATAGGG | 0.997 |
| AACTTTAAA | 1 |
| ATCCTCGT | 0.983 |
| AACCGGTCAG | 1.06 |
| TAAAAGTTCT | 1.04 |
| TGGTGCTGTA | 1.01 |
| TCTTACTACC | 1.34 |
| AAGGCATTTA | 0.981 |
| TTCCTCCAGG | 1.4 |
| TTGGATGCTA | 0.979 |
| GCAGAACTTT | 1.07 |
| AAAGCATGAG | 1.03 |

| Sequence | switch fluorescence ratio |
| --- | --- |
| ACTATGGGA | 0.979 |
| GTATCAATTG | 0.974 |
| TAATTATCAG | 0.964 |
| CAATTGACGG | 1.03 |
| AACCGGTTTG | 0.987 |
| CCAAGGGTTC | 1.02 |
| TCTTCAATTT | 1.06 |
| GCGTGATCC | 1.06 |
| GCCTTCAGTT | 0.997 |
| ATCACAGTTC | 1.06 |
| CCATAATTGG | 1.06 |
| CACACGTTGA | 1.04 |
| TGTCGTCTTA | 1.02 |
| ACGGTTTATA | 1.05 |
| GGAAGAGAGC | 0.968 |
| CACTCTGATT | 1.03 |
| TTTCGGGCTT | 0.97 |
| ATGTTTGCAA | 1.05 |
| AAAACAATGT | 1.04 |
| ATTGCTGCCG | 1.02 |
| TCTCGGAAAC | 1.29 |
| AGGCGAATTG | 0.963 |
| TCATGGGTT | 1.03 |

| Sequence | switch fluorescence ratio |
| --- | --- |
| AATTAGGCAT | 1.03 |
| TCAACAGTAT | 1.04 |
| AGTCCAGTAA | 1.02 |
| AGGTGTAGCG | 1.02 |
| TTGCGCGTCT | 1 |
| GACTGGACTC | 1.15 |
| GGCCAAGGTT | 0.98 |
| GCGAGAGCCG | 0.937 |
| ATTCTTTAGC | 0.995 |
| GCGAGCCTGT | 1 |
| ATTTGTGACA | 0.988 |
| CCTCAGACCG | 1.07 |
| AATGGTAGC | 1.02 |
| GCCTTATTGA | 1.03 |
| TATACTGACG | 1.18 |
| AATGAGCTTG | 1.03 |
| ACGTAGGTGT | 1.11 |
| GGCACCCTAA | 0.976 |
| ATCGTGG | 0.997 |
| GGATCCAGAC | 1.01 |
| TTAAATGTCA | 0.958 |
| ATACTCGCT | 1 |
| GTTCCACTTA | 1.01 |

| Sequence | switch fluorescence ratio |
| --- | --- |
| CCACTAAGGA | 1 |
| AATTATCCCT | 1.05 |
| TGCCAATTGT | 1.05 |
| TCGAAGCGCG | 0.948 |
| AAATTTGTTT | 1.07 |
| CTGTGCATTC | 4.8 |
| CTGCGGGGTG | 1.06 |
| TGCTATCTTG | 0.988 |
| TCCTTGGTTA | 1.04 |
| GGTTCGGAGT | 0.977 |
| ATAGCGCCAT | 0.992 |
| TACGCCCGCC | 1.27 |
| AACAGGCTGC | 0.987 |
| CTTACAGCTG | 0.985 |
| TCAGAGCTAA | 3.3 |
| CGGCGGTATG | 0.945 |
| CTACAGGGAT | 1.04 |
| TCACGACGAA | 1.07 |
| GCTTGTTTAA | 1.01 |
| AATAATCGAT | 0.972 |
| AATGGTCTAA | 0.991 |
| CCAAAAATGG | 1.05 |
| CCATGGACTG | 1.02 |

| Sequence | switch fluorescence ratio |
| --- | --- |
| TCTCCTGAGG | 1.01 |
| GGCCAATGAA | 1 |
| AGAGCTGTCC | 0.98 |
| GTTACATTGG | 1.01 |
| GTCTGTTTCG | 1.03 |
| GTGGGGAAAC | 0.993 |
| GCTGGTCTA | 0.995 |
| CCAGAAATT | 0.943 |
| ATGGGCACCA | 1 |
| TTCGAACTTG | 0.978 |
| AGGCCCCCAA | 1.13 |
| ATTTCAAAGT | 1.01 |
| TAGTCTCGTT | 1.02 |
| GATAGGGGTA | 0.96 |
| TGCTCCGAGT | 1.94 |
| ATATACTGCG | 1.04 |
| AAGGATGATA | 1.02 |
| AAGCATGTAC | 4.01 |
| TTGATGTGTC | 1.04 |
| ATTCGTCTGT | 1.02 |
| GATGCAGTCC | 1.03 |
| GGTTTAGAAT | 0.967 |
| GCCATCCACA | 1.06 |

| Sequence | switch fluorescence ratio |
| --- | --- |
| CTGTGTGTAT | 0.98 |
| TCCCTGGTAC | 1.7 |
| GGCCTTCTGC | 1.04 |
| ATTCGGAATG | 0.962 |
| AAGGATTCAT | 0.992 |
| TATGAAGGGT | 0.991 |
| AAAAACAGGC | 1.03 |
| AATGTCACAC | 1.02 |
| CATAGGCGGG | 0.977 |
| CAAATCGGCA | 1.03 |
| GGTGTGTACC | 0.99 |
| GGAGGGTTCA | 1.02 |
| CAGAACCTGA | 1.14 |
| TTCTTGTCAT | 0.989 |
| AGAGAACCGG | 1.01 |
| CGGAAGAACG | 1 |
| GGCGTATGTC | 1 |
| CACGAAGTG | 0.984 |
| TTTTTAATAA | 0.976 |
